# Measured values published in PubChem BioAssay AID463173 (ICCB-Longwood Screening Facility, Harvard Medical School, 2010).
# The campaign covered roughly 52,000 compounds. About 1,700 (3.3%) were called active. Cut-off read from the data, not from the text of the source: active = survival mostly below about 52% (no sharp cut-off); inactive = mostly above about 56%. Some of the results follow.
# Tested on: Wild type
# Experiment: growth inhibition of S. aureus wild type versus tarO mutant, primary screen, teichoic acid synthesis inhibitors, RN4220, OD600 (AID 463173)
# Details: S. aureus RN4220 wild type/DeltatarO growth, OD600, 18 h, active compounds read low, screened at 18.75 µg/mL (by protocol)
row,SMILES,survival
1,Cn1c(=O)n(C)c2cc(NC(=O)C(F)(F)F)ccc21,inactive: 83%
2,COC(=O)c1c(SC)nc2ccccc2c1OCc1ccc(C)cc1,inactive: 75%
3,CCOC(=O)c1cc(S(=O)(=O)N2CCN(c3cccc(OC)c3)CC2)[nH]n1,inactive: 120%
4,CCCCn1cc(S(=O)(=O)c2ccc(Cl)cc2)c(=O)c2cc(F)c(N3CCCC(C)C3)cc21 (centres undefined),inactive: 127%
5,CCOC(=O)Cn1c(=O)oc2cc(S(=O)(=O)N3CCCC(C)C3)ccc21 (centres undefined),inactive: 130%
6,O=C(NCc1ccc(Cl)cc1)c1ccc2oc(=O)n(Cc3ccccc3)c2c1,inactive: 129%
7,COC(=O)c1c(-c2ccc(Cl)cc2)noc1N1CCN(c2cccc(C)c2C)CC1,inactive: 85%
8,c1ccc(-n2nc3ccc4nonc4c3n2)cc1,inactive: 104%
9,CCc1cnc2c(c1SCC(=O)Nc1ccc(OC)c(OC)c1)c(=O)n(C)c(=O)n2C,inactive: 71%
10,CCCC1=Nc2cc(C(=O)NCC(C)c3ccccc3)ccc2Sc2ccccc21 (centres undefined),inactive: 75%
11,COc1ccc(S(=O)(=O)N(CCc2ccccc2)CC(N)=O)cc1,inactive: 111%
12,CCOc1ccc(CNC(=O)Cn2cc3c(n2)-c2c(oc(C(=O)N4CCCC4)c2C)CC3)cc1,inactive: 87%
13,COc1cccc(CNC(=O)Cn2nc3c(cc2=O)CCCC3)c1OC,inactive: 79%
14,CC1CCCN(C(=O)CCS(=O)(=O)c2cc3c(cc2Cl)NC(=O)CO3)C1 (centres undefined),inactive: 88%
15,Cc1ccc(C2c3c(-c4ccccc4O)n[nH]c3C(=O)N2CCc2ccccc2)cc1 (centres undefined),inactive: 58%
16,CC(=O)N1c2c(cc(Br)cc2S(=O)(=O)Nc2ccc(OC(F)(F)F)cc2)CC1C (centres undefined),inactive: 105%
17,CCOC(=O)c1noc2ncn(Cc3cccc(C#N)c3)c(=O)c12,inactive: 134%
18,O=C(CCCn1c(=O)[nH]c2ccsc2c1=O)N1CCN(c2cccc(C(F)(F)F)c2)CC1,inactive: 72%
19,Cc1cc(Cl)ccc1NC(=O)CN1C(=O)COc2ccc(S(=O)(=O)N3CCC(C)CC3)cc21,inactive: 106%
20,O=C(Nc1ccc(Cl)cc1)c1cc(S(=O)(=O)N2CCCc3ccccc32)ccc1F,inactive: 136%
21,COc1ccc(OCC(=O)Nc2nc(-c3ccc(Br)cc3)ns2)cc1,inactive: 77%
22,CCNc1nc(NC(C)CC)nc(Oc2ccc(OCC)nn2)n1 (centres undefined),inactive: 134%
23,COc1ccc(NC(=O)NCc2c(-n3cccc3)sc3c2CCCC3)c(OC)c1,inactive: 79%
24,CCc1cccc(C)c1NC(=O)NC1COc2ccccc2C1 (centres undefined),inactive: 124%
25,COc1ccccc1CN(Cc1ccco1)c1cnc(S(C)(=O)=O)nc1C(=O)Nc1ccccc1Cl,inactive: 83%
26,Cc1c(C(=O)OC2CCC(C)CC2)[nH]c2c1C(=O)CC(c1ccccc1Cl)C2 (centres undefined),inactive: 88%
27,CCOc1ccc(CCNC(=O)CCCc2nnc3n(C)c(=O)c4sccc4n23)cc1OCC,inactive: 83%
28,COc1ccc(NC(=O)CSc2nc(-c3ccc(OC)c(OC)c3)[nH]c2-c2ccc(C)cc2)cc1,inactive: 139%
29,COc1ccc(NCc2cc3cc4c(cc3n(CC(=O)Nc3ccccc3)c2=O)OCO4)cc1,inactive: 128%
